# Measurements: article PMC4336329 (PLoS ONE, 2015)
# Among all 310,000 compounds or so, about 14,000 (4.5%) showed an effect of 50% or more. Effects have a minus sign here. Some of the results follow.
# Molecular target: human ether-à-go-go-related gene (hERG) potassium channel (human, UniProt Q12809)
# Test: primary screen, population patch clamp on CHO cells stably expressing hERG
# 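Note: peak tail current of the secondary pulse compared with the same well before compound.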
# Sequence of human ether-à-go-go-related gene (hERG) potassium channel (Q12809 whole entry, looked up): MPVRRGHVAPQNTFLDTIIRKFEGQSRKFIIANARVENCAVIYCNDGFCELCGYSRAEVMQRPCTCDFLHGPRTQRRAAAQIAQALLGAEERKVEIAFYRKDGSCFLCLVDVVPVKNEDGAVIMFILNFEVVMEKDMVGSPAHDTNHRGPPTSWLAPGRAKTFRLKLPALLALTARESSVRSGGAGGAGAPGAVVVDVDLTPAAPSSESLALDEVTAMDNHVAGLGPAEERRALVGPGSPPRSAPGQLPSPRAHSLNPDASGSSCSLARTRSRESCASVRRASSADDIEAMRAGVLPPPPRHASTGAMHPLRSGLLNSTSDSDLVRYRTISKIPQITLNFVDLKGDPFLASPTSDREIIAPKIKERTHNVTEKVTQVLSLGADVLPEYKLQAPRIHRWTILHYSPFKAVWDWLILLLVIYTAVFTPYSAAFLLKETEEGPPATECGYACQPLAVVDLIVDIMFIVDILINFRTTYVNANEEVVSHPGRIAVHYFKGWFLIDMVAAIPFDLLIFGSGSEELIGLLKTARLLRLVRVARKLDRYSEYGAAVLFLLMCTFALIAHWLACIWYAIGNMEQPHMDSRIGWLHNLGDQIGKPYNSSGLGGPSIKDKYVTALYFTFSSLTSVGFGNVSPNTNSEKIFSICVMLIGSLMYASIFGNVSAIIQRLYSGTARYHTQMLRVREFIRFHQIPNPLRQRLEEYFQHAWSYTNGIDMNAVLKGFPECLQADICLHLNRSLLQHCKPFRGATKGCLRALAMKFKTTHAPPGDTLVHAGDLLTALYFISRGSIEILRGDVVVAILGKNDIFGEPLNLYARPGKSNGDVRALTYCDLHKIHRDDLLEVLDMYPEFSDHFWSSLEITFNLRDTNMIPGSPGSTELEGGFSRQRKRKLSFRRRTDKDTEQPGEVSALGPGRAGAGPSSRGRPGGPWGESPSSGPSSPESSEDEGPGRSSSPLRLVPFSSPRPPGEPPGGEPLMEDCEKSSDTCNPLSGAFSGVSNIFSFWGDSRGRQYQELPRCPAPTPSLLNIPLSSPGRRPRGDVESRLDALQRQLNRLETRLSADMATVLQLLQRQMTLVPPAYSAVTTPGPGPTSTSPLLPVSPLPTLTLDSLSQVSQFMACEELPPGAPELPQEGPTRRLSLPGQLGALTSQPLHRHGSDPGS
row,Compound,"hERG current change (%, negative = inhibition) at 10uM"
1,CN(CCCC(=O)O)c1ccc(N=Nc2ccc([N+](=O)[O-])cc2)cc1,14.8%
2,COc1ccc(OC)c(Nc2ccc(C(=O)O)cc2[N+](=O)[O-])c1,9.47%
3,Cc1cc(C)nc(-n2ncc3c2CC(c2ccccc2C)CC3=O)n1 (stereo not shown),-6.94%
4,COC(c1ccccc1)c1nnc(CCC(=O)N2CCN(CCOc3ccccc3)CC2)o1 (stereo not shown),-19.1%
5,CCOc1ccc(-c2nn(-c3ccccc3)cc2/C=C2\SC(N)=NC2=O)cc1C,11.2%
6,Cn1c(=O)c2c(nc(NCCCN3CCOCC3)n2Cc2cccc(Cl)c2)n(C)c1=O,-9.57%
7,Cc1cccc(N2CCC(NCc3c(C(=O)N4CCCCC4)nc4c(C)cccn34)CC2)c1,-46.6%
8,Cc1cccc(C#N)c1,8.77%
9,C=CCCN(C(CC(C)C)C(=O)OC)S(=O)(=O)c1ccccc1Br (stereo not shown),1.66%
10,CCC(=O)NC(=S)Nc1cccc(NC(=O)c2ccccc2Cl)c1,-0.673%
11,COc1cc2c(cc1O)C[C@H]1c3c(cc(O)c(OC)c3-2)CCN1C,-70.1%
12,CN(C)c1ccc(/C=N/NC(=O)c2nnn(-c3nonc3N)c2CN(C)c2ccccc2)cc1,4.74%
13,O=C(CN1CCCCC1)Nc1nc(-c2ccc(Cl)cc2)cs1,4.65%
14,Cc1nc(N2CCN(C)CC2)c2sc(=S)n(C)c2n1,-7.2%
15,O=C(c1ccccc1F)N1CCC2(CC1)OCCO2,30.8%
16,COC(=O)CCCC1=CC2=CC(=O)C(C)(OC(=O)c3cccs3)C(=O)C2=CN1CCN1CCOCC1 (stereo not shown),-0.177%
17,CCOC(=O)Cc1csc(NC(=O)c2csc3c2CCCC3)n1,-13.5%
18,COc1ccc(CNC(=O)C(NS(=O)(=O)c2cccc3nsnc23)C(C)C)cc1 (stereo not shown),-2.66%
19,C=CCNC(=O)COC(=O)c1c2c(nc3ccccc13)CCC2,8.33%
20,O=C(NC1CCCCC1)C1CCN(C(=O)c2ccc(Cl)cc2)CC1,-6.16%
21,Cc1nn(C)c(Cl)c1CN1CCCC(CO)(Cc2ccccc2)C1 (stereo not shown),-6.66%
22,COc1cc(C(=O)N/N=C/c2ccc(OC)c(CN3CCN(c4ccc(F)cc4)CC3)c2)ccc1O,-75.3%

row,Compound,"hERG current change (%, negative = inhibition) at 10uM"
1,O=C(N/N=C/c1ccc(O)cc1O)NC12CC3CC(CC(C3)C1)C2,7.43%
2,O=C(CCCSc1nc(-c2ccco2)cc(C(F)(F)F)n1)Nc1ccc2c(c1)OCO2,9.62%
3,CCOc1ccc2nc(NCCNC(=O)Nc3ccccc3)c(C#N)cc2c1,-9.39%
4,O=C(c1ccc(N2CCCC2=O)cc1)N1CCN(c2ccccc2Cl)CC1,-12.1%
5,Cc1onc(-c2c(F)cccc2Cl)c1C(=O)Nc1cccc(S(=O)(=O)NCc2ccco2)c1,-5.18%
6,Cc1cccc(NC(=O)c2cccc(NS(=O)(=O)c3ccc(Cl)cc3)c2)c1,-0.342%
7,COc1cc2nc(CC(C)C)n(NC(=O)c3ccccc3Br)c(=O)c2cc1OC,10.6%
8,Cc1ccsc1/C=N/NC(=O)c1ccc2ccccc2c1,38.5%
9,O=C1C2C3C=CC(C3)C2C(=O)N1c1cccc2cccnc12 (stereo not shown),-2.94%
10,CC1=C(C(=O)OCC(Br)(Br)Br)C(c2cccc([N+](=O)[O-])c2)NC(=O)N1CCCC(=O)O (stereo not shown),-3.03%
11,CCCCN(CCCC)CC(O)CN(c1cc([N+](=O)[O-])ccc1OC)S(=O)(=O)c1ccccc1 (stereo not shown),-67%
12,COc1ccc(NC(=O)O/N=C/c2ccccc2)cc1,-2.52%
13,CC(C)NC(=O)c1onc(CSc2nc3ccccc3[nH]2)c1C(=O)NC(C)C,-10.4%
14,CCn1c(SCC(=O)N2CCCCC2C)nnc1-c1ccco1 (stereo not shown),-30.7%
15,CCOc1ccccc1NC(=O)COC(=O)c1ccc2ccccc2n1,24%
16,CN1CCC(O)(c2ccccc2)C(C(=O)c2ccccc2)C1 (stereo not shown),-2.34%
17,COc1ccc(N2CCN(S(=O)(=O)c3c(C(=O)N4CCOCC4)c(C)n(C)c3C)CC2)cc1,2.81%
18,CC(C)c1c(O)nc(SCC(=O)N2CCCCC2)[nH]c1=O,-28.9%
19,O=[N+]([O-])c1ccc2nc(-c3ccccc3)oc2c1,16.1%
20,Cc1ccccc1S(=O)(=O)/N=C(/c1ccccc1)N(C)C,10.7%
21,CC1CN(CCCSc2ccc(Cl)cc2)CC(C)O1.O=C(O)C(=O)O (stereo not shown),-47.9%
22,O=C(CCSCc1cccc(Cl)c1)NCCc1ccccc1,-27.2%

row,Compound,"hERG current change (%, negative = inhibition) at 10uM"
1,CCOC(=O)N1CCN(C(=O)Cc2ccc(-n3c(=S)[nH]c4ccccc4c3=O)cc2)CC1,8.42%
2,Cc1ccc(N2C(=O)CC(N3CCN/C3=C3\CC/C(=C\c4ccccc4)C3=O)C2=O)cc1 (stereo not shown),44.7%
3,O=c1oc(/C=C/c2ccco2)nc2sc3c(c12)CCC3,13.2%
4,CCCn1c(C)cc(-c2csc(NC(=O)CCc3nc4ccccc4c(=O)[nH]3)n2)c1C,-15.6%
5,CC(=O)Nc1ccc(Sc2ccccc2C(=O)N2CCCC2)cn1,-24.9%
6,CCC(=O)Nc1ccc(C(=O)NNC(=O)c2cccc(C)c2)cc1,5.41%
7,CC(C)CNC(=O)NC(=O)COc1c(F)c(F)cc(F)c1F,3.76%
8,C[C@@H]1C[C@H]2[C@@H]3CCC4=CC(=O)C=C[C@]4(C)[C@@]3(Cl)[C@@H](O)C[C@]2(C)[C@@]1(OC(=O)c1ccco1)C(=O)CCl,9.39%
9,CC1(C)CC(NC(=O)C23CCC(C)(C(=O)C2)C3(C)C)CC(C)(C)N1 (stereo not shown),-5.57%
10,CCN(c1ccccc1)S(=O)(=O)c1ccc(OC)c(OC)c1,-1.4%
11,O=C(O)C1C2C=CC(O2)C1C(=O)Nc1ccc2c(c1)OCCO2 (stereo not shown),20.2%
12,CN1CCN(c2ccc(NC(=O)COc3cccc4ccccc34)cc2)CC1,-65.4%
13,COc1c(F)c(F)c(C(=O)O)c(Nc2ccc(C)cc2)c1F,25.7%
14,CCOC(=O)c1c(C)n(C)c2ccc(OCC(O)CN3C(=O)c4ccccc4S3(=O)=O)cc12 (stereo not shown),6.84%
15,O=C(O)/C=C/C(=O)Nc1ccc(C2(c3ccc(NC(=O)/C=C/C(=O)O)cc3)c3ccccc3-c3ccccc32)cc1,12.9%
16,O=c1[nH]c(=S)n(-c2ccc(F)cc2)c(O)c1/C=N/N1CCOCC1,17.1%
17,Cc1nc([N+](=O)[O-])cn1-c1nc2ccccn2c1[N+](=O)[O-],18.5%
18,CC(C)CCN(C(=O)c1csnn1)C(C(=O)NC1CCCCC1)c1ccc(F)cc1 (stereo not shown),-3.38%
19,CCN(C(=O)COC(=O)c1cccnc1SC)C1CCCCC1,-15.4%
20,Cc1ccccc1N1CCN(C2=NC(=O)/C(=C/c3cn[nH]c3-c3ccccc3)S2)CC1,10.8%
21,O=C(NCCCN1CCOCC1)c1ccc(Sc2ccc(Br)cc2)c([N+](=O)[O-])c1,-1.93%
22,CCOc1ccccc1CN1CCCC(C(=O)c2ccc(OC)c(OC)c2)C1 (stereo not shown),-74.2%

row,Compound,"hERG current change (%, negative = inhibition) at 10uM"
1,Cc1cccc(NC(=O)c2cc(NC(=O)C3CC=CCC3C(=O)O)ccc2N2CCOCC2)c1 (stereo not shown),7.28%
2,COc1ccc(N(C)S(=O)(=O)c2cccc(C(=O)Nc3nc4ccccc4[nH]3)c2)cc1,8.04%
3,COc1ccc(-c2noc(CCC(=O)NCCCN3CCC(Cc4ccccc4)CC3)n2)cc1,-80.7%
4,COc1ccc(OC)c(S(=O)(=O)N2CCC(C(=O)NC3CCCCC3)CC2)c1,-6.76%
5,CCC(=O)NC(=S)Nc1ccc(NC(=O)c2ccc([N+](=O)[O-])cc2Cl)cc1,4%
6,Cc1cc(C(=O)N2CCC(C(N)=O)CC2)c(C)o1,0.38%
7,O=S(=O)(c1cnccc1N1CCN(/N=C/c2ccc(Cl)cc2)CC1)N1CCCCC1,5.46%
8,O=C(c1cc(-c2ccc(Cl)cc2)n(-c2ccc(Cl)c(Cl)c2)n1)N1CCOCC1,-57%
9,CC(=O)N/C(=N/c1nc(C)cc(C)n1)Nc1ccc(NC(C)=O)cc1,9.5%
10,CCCNC(=O)NC(=O)COC(=O)c1cccc(NS(=O)(=O)c2ccc(F)c(F)c2)c1,-12%
11,O=C1CCCc2c1[nH]c1c(Br)cccc21,-16%
12,O=C(CSc1ccc(F)cc1)Nc1ccc(N2CCOCC2)cc1,-2.37%
13,Fc1ccc(/C=N\Nc2cccc(F)c2)cc1,12.1%
14,Cc1cccc(NC(=O)N2CCN(Cc3ccccc3)CC2)c1,8.14%
15,O=C(c1ccc(NS(=O)(=O)c2cccc(F)c2)cc1)N1CCCC1,1.58%
16,Cc1cc([N+](=O)[O-])nn1CCCC(=O)Nc1cc(Cl)ccc1Cl,-17%
17,O=C(COC(=O)C12CC3CC(CC(C3)C1)C2)Nc1nccs1,22.4%
18,CCN(C(=S)Nc1ccc(OC(F)F)cc1)C1CCCCC1,-22.8%
19,CCC1(c2ccccc2)NC(=O)N(CC(=O)NNC(=O)COc2ccc(Cl)cc2C)C1=O (stereo not shown),11.7%
